Data reported in US6306899A (priority 1999, dated 2001).

Test system: 3TC resistant HBV (DM2)
Experiment: Activity against 3TC resistant HBV (DM2, L526MM550V) in transfected HepG2 cells
Assay type: cell-based, Hepatitis B virus
Details: DM2, HepG2, 9 days; in words

O=C1OCc2c1cc1ccc3c(c1c2-c1ccc2c(c1)OCO2)OCO3 [Compound 145, 7,8-methylenedioxy-1-(3',4'-methylenedioxyphenyl)-2-hydroxymethylnaphthalene-3-carboxylic acid lactone]
effect on 3TC resistant HBV: essentially the same effect on 3TC resistant HBV (DM2) as on 3TC sensitive HBV
